Measurements published in patent US4011327A (priority 1975, dated 1977).

Tests used:
Histoplasma capsulatum = system: Histoplasma capsulatum; design: key: T: trace of growth; conditions: 10 mcg/ml, week 1, No. 1106, 25° C, duplicates a, b
Experimental: (§1) The minimum in vitro inhibitory concentration of 7β-methylthiodeoxynupharidin-6α-ol against these microorganisms in mcg/ml for a two week period as well as the disease and symptomatology usually associated with a mammalian infection by the microorganism is shown in Table 1.
(§2) Preparation of a solution of 7 -MTDOL suitable for running the antifungal tests was carried out in the following manner.
(§3) A 50 mg sample of 7-MTDOL was dissolved in a mixture of 30 mg of acetic acid and 1 ml of dimethylsulfoxide. The resulting solution was then employed to inhibit the growth of the microorganisms in vitro. The solvent blank which was used for comparison purposes was made up in a similar manner. Thus 60 mg of acetic and 2 ml of dimethylsulfoxide was diluted to 100 ml with water. These solutions of 7-MTDOL and reference solvent were sterilized by filtering through a Seitz filter.
(§4) The mycelial growth of Blastomyces dermatitidis and Histoplasma capsulatum was inhibited up to the end of 3 weeks by concentrations of 80 and 40 μg /ml respectively of 7-MTDOL in Sabouraud dextrose agar. The growth of Trichophyton rubrum and Sporotrichum schenckii was inhibited up to the end of 3 weeks by concentrations of 100 μg /ml of 7-MTDOL in Sabouraud dextrose agar. […]

Sporotrichum schenckii = test: Antifungal activity in vitro, mycelial growth on Sabouraud dextrose agar; design: key: T: trace of growth; conditions: week 1, No. 1109, 25° C, duplicates a, b
Experimental: as §1, §2, §3, §4

Measured: weekly increments of the diameter of colony

CSC1(C)CCC2C(C)CCC(c3ccoc3)N2C1O (single isomer, unassigned) [Example 7-MTDOL, 7β-methylthiodeoxynupharidin-6α-ol]
T: Histoplasma capsulatum | Sporotrichum schenckii; 20 mcg/ml | Sporotrichum schenckii; 40 mcg/ml
